Laboratory results as given in the supplement of paper PMC4967469.
A lower IC50 marks a more sensitive line; where the fit passes the top or lowest dose, that dose stands as a limit. AUC, from the same fit, is the share of area under the viability curve across the 256-fold dose range; values near 1 show little effect. For part of these data: A top dose marked as inferred was derived from the fitted curves, not read from the paper. For part of these data: An entry number marks a drug with two screens in the source, which often give different values.

How the values were obtained:
Experiment in all cases: Viability of human cancer cell lines after 72 h of drug (GDSC screen)
LAQ824 = compound: O=C(/C=C/c1ccc(CN(CCO)CCc2c[nH]c3ccccc23)cc1)NO [LAQ824]; conditions: top dose 1.024 µM; top dose inferred
Method: (§1)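 Human cancer cell lines in 384-well plates, medium with 10% serum, drug for 72 h over a 256-fold dose range (nine 2-fold or five 4-fold steps up to the top dose). Adherent lines were fixed and stained with the nucleic acid dye Syto60, suspension lines read with resazurin; signal relative to control wells, capped at 0 and 100%. One two-parameter sigmoid per drug and line, fitted in a mixed model over all curves with the slope shared within a line.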

BX-912 = compound: O=C(Nc1cccc(Nc2ncc(Br)c(NCCc3cnc[nH]3)n2)c1)N1CCCC1 [BX-912]; conditions: top dose 10.24 µM; top dose inferred
Method: as §1

VNLG/124 = compound: CCCC(=O)OCc1ccc(OC(=O)/C=C(C)/C=C/C=C(C)/C=C/C2=C(C)CCCC2(C)C)cc1 [VNLG/124]; conditions: top dose 5.12 µM; top dose inferred
Method: as §1

OSI-930 = compound: O=C(Nc1ccc(OC(F)(F)F)cc1)c1sccc1NCc1ccnc2ccccc12 [OSI-930]; conditions: top dose 10.24 µM
Method: as §1

Masitinib = compound: Cc1ccc(NC(=O)c2ccc(CN3CCN(C)CC3)cc2)cc1Nc1nc(-c2cccnc2)cs1 [Masitinib]; conditions: top dose 20 µM
Method: as §1

Bleomycin = compound: Cc1c(N)nc([C@H](CC(N)=O)NC[C@H](N)C(N)=O)nc1C(=O)N[C@H](C(=O)N[C@H](C)[C@@H](O)[C@H](C)C(=O)N[C@H](C(=O)NCCc1nc(-c2nc(C(=O)NCCC[S+](C)C)cs2)cs1)[C@@H](C)O)[C@@H](OC1OC(CO)C(O)C(O)C1OC1OC(CO)C(O)C(OC(N)=O)C1O)c1cnc[nH]1 [Bleomycin]
Method: as §1

NSC-87877 = compound: O=S(=O)(O)c1ccc2cc(N=Nc3cc(S(=O)(=O)O)c4cccnc4c3O)ccc2c1 [NSC-87877]; conditions: top dose 16 µM; top dose inferred
Method: as §1

Elesclomol = compound: CN(NC(=O)CC(=O)NN(C)C(=S)c1ccccc1)C(=S)c1ccccc1 [Elesclomol]; conditions: top dose 0.2 µM; top dose inferred
Method: as §1

[1] = top dose 50 µM, screen: GDSC drug entry 1378, top dose inferred
[2] = top dose 64 µM, screen: GDSC drug entry 190

Cell Line | AUC (LAQ824) | IC50 (LAQ824) | AUC (BX-912) | IC50 (BX-912) | AUC (VNLG/124) | IC50 (VNLG/124) | AUC (OSI-930) | IC50 (OSI-930) | AUC (Masitinib) | IC50 (Masitinib) | AUC (Bleomycin; [1]) | IC50 (Bleomycin; [1]) | AUC (Bleomycin; [2]) | IC50 (Bleomycin; [2]) | AUC (NSC-87877) | IC50 (NSC-87877) | AUC (Elesclomol) | IC50 (Elesclomol)
OVCAR-5 (ovary, adherent) | 0.272 | 0.0124 µM | 0.889 | > 10.2 µM | 0.982 | > 5.12 µM | 0.98 | > 10.2 µM | 0.938 | > 20 µM | 0.301 | 0.764 µM | 0.476 | 3.4 µM | 0.959 | > 16 µM | 0.237 | 0.00181 µM
SK-OV-3 (ovary, adherent) | 0.367 | 0.0249 µM | 0.872 | > 10.2 µM | 0.959 | > 5.12 µM | 0.94 | > 10.2 µM | 0.886 | > 20 µM | 0.626 | 7.6 µM | 0.381 | 1.73 µM | 0.981 | > 16 µM | 0.427 | 0.00752 µM
VMRC-RCW (kidney, adherent) | 0.357 | 0.0265 µM | 0.979 | > 10.2 µM | 0.984 | > 5.12 µM | 0.989 | > 10.2 µM | 0.922 | > 20 µM | – | – | 0.741 | 18.4 µM | 0.981 | > 16 µM | 0.75 | 0.0611 µM
T98G (glioma, adherent) | 0.784 | 0.399 µM | 0.965 | > 10.2 µM | 0.964 | > 5.12 µM | 0.982 | > 10.2 µM | 0.961 | > 20 µM | 0.258 | 0.676 µM | 0.799 | 28.1 µM | 0.977 | > 16 µM | 0.652 | 0.0318 µM
OCUM-1 (stomach, adherent) | 0.357 | 0.0246 µM | 0.983 | > 10.2 µM | 0.986 | > 5.12 µM | 0.974 | > 10.2 µM | 0.972 | > 20 µM | 0.678 | 10.5 µM | 0.321 | 1.19 µM | 0.987 | > 16 µM | 0.705 | 0.0508 µM
MIA-PaCa-2 (pancreas, adherent) | 0.425 | 0.039 µM | 0.975 | > 10.2 µM | 0.978 | > 5.12 µM | 0.952 | > 10.2 µM | 0.941 | > 20 µM | 0.157 | 0.239 µM | 0.128 | < 0.25 µM | 0.973 | > 16 µM | 0.365 | 0.0051 µM
CCRF-CEM (lymphoblastic leukaemia, suspension) | 0.24 | 0.0133 µM | – | – | 0.972 | > 5.12 µM | 0.96 | > 10.2 µM | – | – | 0.81 | 21.3 µM | 0.218 | 0.715 µM | 0.991 | > 16 µM | 0.337 | 0.00478 µM
